Laboratory results: the supplement of paper PMC3334620
In all, about 33,000 sequences were measured (“E-score (-0.5 to 0.5)”: median about -0.01, highest 2% from about 0.26 on). The list shows a part of the results.

molecular target: Ste12 (UniProt P13574); test: PBM E-score (8-mer binding enrichment) (E-score (-0.5 to 0.5)); higher = stronger / more preferred TF binding; most listed sequences are background and not binding sites; conditions: protein concentration: 200 nM; construct: GST-DNA-binding domain
How it was run: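 E-scores (a modified Wilcoxon-Mann-Whitney statistic) were assigned by the Universal PBM Analysis Suite to every ungapped eight-base word pooled with its reverse complement. The input came from universal all-10-mer Agilent arrays made double-stranded by primer extension and probed with GST-tagged yeast transcription factors at about 100-200 nM. Fluorescent anti-GST detected bound protein, and masliner normalised the scans.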

Row | Sequence | PBM E-score
1 | CAACTGCG | -0.196
2 | CTCCCTCC | -0.0337
3 | GAGCAAAA | -0.00217
4 | CACTACGC | -0.207
5 | ATCCAGGA | -0.191
6 | GAGAAAGA | 0.0892
7 | TCTAGGAA | 0.0024
8 | AATATTAT | 0.24
9 | CGTTAACC | -0.0977
10 | CGAAAACC | 0.0575
11 | GACTGAAA | 0.241
12 | AGCCATCA | 0.0611
13 | CTACGTGA | -0.19
14 | CCCAACTA | 0.0883
15 | CCCGAGAG | -0.0799
16 | ATAGCTGC | -0.0579
17 | GCGGGCAA | 0.105
18 | AATTCGCC | 0.0264
19 | CATTCGTC | 0.0844
20 | GGTTGGCA | -0.129
21 | CTAAGTCA | 0.0104
22 | ATTTGCGC | 0.0884

Row | Sequence | PBM E-score
23 | GATCCCAC | -0.0104
24 | AATCTTAG | 0.0994
25 | AGTGTTAT | 0.01
26 | GTAGATGA | 0.186
27 | TGGATCCA | -0.112
28 | GGCGAAAC | 0.191
29 | AAAGAGGG | -0.15
30 | AGCGCTAC | -0.0647
31 | CTGCCATA | 0.142
32 | AATCTAAC | 0.0293
33 | TAACCATA | 0.139
34 | AGCATATC | -0.0273
35 | GCGTTTGA | 0.0907
36 | AATATTGT | 0.157
37 | ACTACGTA | -0.225
38 | CCCATCTA | -0.0575
39 | ACACCATA | 0.107
40 | ATGATCCA | -0.0872
41 | CCAGCTAG | -0.236
42 | AGAAGAAG | 0.152
43 | CTCAGGCA | 0.00132
44 | ATACCGCA | 0.0493

Row | Sequence | PBM E-score
45 | CTGGTCCA | -0.0563
46 | CCTGTGCC | -0.257
47 | GATAGCGA | 0.00939
48 | CCGGATCA | 0.0914
49 | GTTGGCGA | -0.0745
50 | AATACGAT | 0.0214
51 | CCGATGCA | -0.0447
52 | ATACGCGA | 0.0137
53 | CAGTCTCG | -0.185
54 | CTCTACTA | 0.0149
55 | ATACAGGG | 0.0509
56 | GAACCTAC | -0.0453
57 | ACATCGGG | 0.0481
58 | ACTTAGTA | 0.0058
59 | CGCGGTCA | 0.0265
60 | ACTTACAG | 0.0476
61 | GTACTAGA | 0.0568
62 | AAGCCTGA | -0.265
63 | CTTGCAAC | 0.083
64 | GCTGACAA | 0.0588
65 | AAAATCCC | 0.157
66 | AGTACGTG | -0.183

Row | Sequence | PBM E-score
67 | GGTGCCCA | -0.108
68 | ATCAACGC | -0.0489
69 | ATACAGAG | -0.0452
70 | GCCGCAAC | 0.159
71 | AGAAAGCA | 0.0992
72 | TGAAAACA | 0.162
73 | AACACAAG | 0.06
74 | GGTAGTAC | -0.0411
75 | GACATCAA | 0.0551
76 | CTCCCGCA | 0.0227
77 | ACCCACCC | 0.314
78 | ACTTGTGA | -0.00066
79 | AAGGTATG | -0.06
80 | ATTCGAGA | 0.128
81 | AGTCCCTC | -0.18
82 | GGAAGGAA | 0.0976
83 | AGCTAGCC | -0.123
84 | CCTCAACC | -0.198
85 | CTCTCGGC | -0.0334
86 | AAGTGGGA | 0.175
87 | ACTCCGTC | -0.0755
88 | GCCCGAAC | -0.0139

Row | Sequence | PBM E-score
89 | CTGACCCC | -0.329
90 | ACCGTTGA | -0.134
91 | ACCGTACT | 0.036
92 | AATCCTCT | -0.194
93 | CACTTCAG | -0.198
94 | ACACTTAT | 0.132
95 | CTCAACAC | 0.103
96 | CAGGCGGC | -0.244
97 | CATATCGA | 0.123
98 | GGTTGGGA | -0.0571
99 | CGGCTTGC | 0.219
100 | AACACAGC | 0.186
101 | ATCTATAC | 0.0285
102 | CCACTCCC | 0.0138
103 | GAGGCATA | -0.103
104 | CATTTCAA | 0.214
105 | GCTGGAAA | 0.00555
106 | AGGAATAG | 0.0361
107 | CTCGGCCC | -0.256
108 | ACTCACAG | 0.0124
109 | CTCCGATC | -0.268
